Reference: US20140193437A1, “HYDROPHILIC SELF-IMMOLATIVE LINKERS AND CONJUGATES THEREOF” (BioAlliance C.V., priority 2012, published 2014)

Key:
[1] = system: colorectal cancer cell line DLD-1; experiment: In-vitro cytotoxicity by WST-1 assay, DLD-1; assay type: cell-based; conditions: DLD-1 (binding-positive), Table 6
Procedure: The colorectal cancer cell line DLD-1 (BCRC, Cat. No. 60132) was cultured in RPMI Medium 1640 supplemented with 10% FBS, 1 mM sodium pyruvate (GIBCO, Cat. No. 11360), and 100 U/mL penicillin/100 μg/mL streptomycin.
(§1) Cancer cells SNU-16, Panc 02.03B, COLO 205 and SW480 were seeded 1×10^4, 3×10^3, 2×10^4 and 1.2×10^4 cells/well, respectively, on 96-well microtiter plates. Cancer cells DLD-1 and PANC-1 were seeded 1×10^4 cells/well on 96-well microtiter plates. h5F1Ca.1/Tap18H ADC, h5F1Ca.1/Tap18Hr1 or naked antibody h5F1Ca.1 were added in triplicate at final concentration of 3 μg/mL and 1 μg/mL or final indicated concentrations and a final volume 200 μL/well. Cells were then incubated at 37° C. and 5% CO2, and cell viability was detected at 72 hours or 96 hours by cell proliferation reagent WST-1 (Roche (Nutley, N.J.), Cat. No. 11644807001) following manufacturer's instructions. In brief, at the end of incubation 100 μL of medium was withdrawn and 10 μL/well of WST-1 was added to the tested cell line. After optimal color development (when OD450 of untreated control ≧1.00), absorbance at 450 nm (OD450 value) was measured by spectrophotometer (Molecular Devices (Sunnyvale, Calif.), VERSAmax microplate reader). The mean of the triplicates was obtained and background (medium control) was subtracted. The resultant OD450 values were then used to calculate % inhibition according to the following formula: [OD450 solvent−OD450 sample]/[OD450 solvent]*100.
(§2) We further examined the in vitro cytotoxic activity of the c5D7/Tap18Hr1 in the binding-positive colorectal cancer cell line DLD-1, and binding-negative pancreatic cell line PANC-1. Consistent with data presented above, effective growth inhibition in DLD-1 cells was induced by c5D7/Tap18Hr1 but not by c5D7 antibody alone (Table 6).

[2] = system: pancreatic cancer cell line PANC-1; experiment: In-vitro cytotoxicity by WST-1 assay, PANC-1; assay type: cell-based; conditions: PANC-1 (binding-negative), Table 6
Procedure: The pancreatic cancer cell line PANC-1 (BCRC, Cat. No. 60284) was cultured in Dulbecco's modified Eagle's medium (GIBCO, Cat. No. 11965) supplemented with 10% FBS and 100 U/mL penicillin/100 μg/mL streptomycin.
as §1, §2

[3] = system: colorectal cancer DLD-1 tumor; experiment: ADC treatment in DLD-1 subcutaneous xenograft model; assay type: in vivo, C.B-17 SCID mice; conditions: DLD-1 xenograft
Procedure: The chimeric 5D7-54.17 antibody (c5D7) was used in preparing an antibody drug conjugate (ADC), c5D7/Tap18Hr1 (see above for the methods of making the ADC). The anti-tumor activity of c5D7/Tap18Hr1 was evaluated in vivo on DLD-1 transplanted SCID mice. Treatment was initiated at days 1 and 5 following tumor inoculation with vehicle or ADC at 3 mg/kg.

B1: c5D7/Tap18Hr1 (conjugate)
heavy: EVQLQQSGPEVVKPGASMKMSCKTSGYKFTGYYMDWVKQSLGASFEWIGRVIPSNGDTRYNQKFEGKATLTVDRSSSTAYMELNSLTSEDSAVYYCARKPLSGNAADYWGQGTSVTVST[letters of human IgG1 constant region omitted]
light: ETTVTQSPASLSVATGEKVTIRCITSTDIDDDMNWYQQKPGEPPKLLISDGNTLRPGVPSRFSSSGYGTDFVFTIENTLSEDITDYYCMQSDNMPFTFGSGTKLEIKRTVAAPSVFIFPPSDEQLKSGTASVVCLLNNFYPREAKVQWKVDNALQSGNSQESVTEQDSKDSTYSLSSTLTLSKADYEKHKVYACEVTHQGLSSPVTKSFNRGEC
In the case of B1, the “% inhibition” value ([1]; 0.1 μg/mL) is reported as 35.4%, the “% inhibition” value ([1]; 0.31 μg/mL) is reported as 62.0% and the “% inhibition” value ([2]; 0.1 μg/mL) is reported as 2.9%. The “% inhibition” value ([2]; 0.31 μg/mL) was 1.4%, the body weight ([3]; 3 mg/kg at days 1 and 5, after treatment) was “remained unchanged” and the “body weight on average” value ([3]; 3 mg/kg at days 1 and 5, after treatment, either group) was 25 g. For the same molecule, the tumor growth ([3]; 3 mg/kg intravenously at days 1 and 5 (vehicle approached 500 mm^3 at day 14)) was “completely suppressed tumor growth”.

B2: c5D7: chimeric 5D7-54.17 anti-transferrin receptor antibody, heavy chain SEQ ID NO:3, light chain SEQ ID NO:4 (antibody)
heavy: EVQLQQSGPEVVKPGASMKMSCKTSGYKFTGYYMDWVKQSLGASFEWIGRVIPSNGDTRYNQKFEGKATLTVDRSSSTAYMELNSLTSEDSAVYYCARKPLSGNAADYWGQGTSVTVST[letters of human IgG1 constant region omitted]
light: ETTVTQSPASLSVATGEKVTIRCITSTDIDDDMNWYQQKPGEPPKLLISDGNTLRPGVPSRFSSSGYGTDFVFTIENTLSEDITDYYCMQSDNMPFTFGSGTKLEIKRTVAAPSVFIFPPSDEQLKSGTASVVCLLNNFYPREAKVQWKVDNALQSGNSQESVTEQDSKDSTYSLSSTLTLSKADYEKHKVYACEVTHQGLSSPVTKSFNRGEC
With B2 the “% inhibition” value ([1]; 0.1 μg/mL) was 0.6%, the “% inhibition” value ([1]; 0.31 μg/mL) was −0.3% and the “% inhibition” value ([2]; 0.1 μg/mL) was 4.6%. The “% inhibition” value ([2]; 0.31 μg/mL) was 4.5%.
